This is an account of results in the supplement of paper PMC9446081.

Each structure is given as a SMILES string. Hit rate of the full screen: of about 39,000 compounds, about 220 (0.56%) showed activity. This is one part of the list.
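Also: static incubation at 37 °C against the wild-type strain, values averaged over two biological replicates.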

In the assay the test system is Escherichia coli K-12 BW25113. Kind of assay: relative growth (OD600 normalised to plate interquartile mean) (fraction); higher = less growth inhibition, active = 0.2 or less. To be noted: 50 µM; LB; incubation time: overnight (16-24 h).
With `C[C@H](CO)N1C[C@H](C)[C@H](CN(C)S(C)(=O)=O)OCCCC[C@H](C)Oc2ccc(NC(=O)CCCN(C)C)cc2C1=O`, the relative growth was inactive: 0.99.

`C[C@@H]1CN([C@@H](C)CO)C(=O)c2cc(NC(=O)CCCN(C)C)ccc2O[C@@H]1CN(C)C(=O)Nc1ccc2c(c1)OCO2`: the relative growth was inactive: 0.964. In the case of `C[C@@H]1CCCCO[C@H](CN(C)Cc2ccccc2)[C@@H](C)CN([C@H](C)CO)C(=O)c2cc(NS(=O)(=O)c3cccs3)ccc2O1`, the relative growth was inactive: 0.987.

`CN1C(=O)c2cc(NC(=O)c3ccc(F)cc3)ccc2OC[C@@H]2O[C@H](CC(=O)N3CCOCC3)CC[C@H]21`: the relative growth was inactive: 1.03. For the compound `C[C@H](CO)N1C[C@H](C)[C@@H](CN(C)Cc2ccc(C(=O)O)cc2)OCCCC[C@H](C)Oc2ccc(NC(=O)C3CCCCC3)cc2C1=O`, the relative growth is inactive: 1.01.

For the compound `COC[C@H]1CN(CC2CC2)Cc2nnn(C)c21`, the relative growth was inactive: 1. Take `CNCc1cccc2ccccc12`: the relative growth is inactive: 0.955. Consider `CCCCC/C=C/C=C1/C(=O)C=C[C@@H]1C/C=C\CCCC(=O)O`, for which the relative growth is inactive: 1.05. As for `CC(C)NC(=O)Nc1ccc2c(c1)C(=O)N([C@H](C)CO)C[C@H](C)[C@H](CN(C)C(=O)NC1CCCCC1)O2`, the relative growth was inactive: 0.995. Regarding `O=C(N/N=C/c1ccc(B(O)O)cc1)c1ccccc1O`, the relative growth was inactive: 0.972. On to `CCOC(=O)Cn1cnc2ccccc2c1=O`, for which the relative growth is inactive: 0.994.

Take `Cc1ccc(S(=O)(=O)Nc2ccc3c(c2)CC(=O)N([C@H](C)CO)C[C@H](C)[C@@H](CN(C)CC2CC2)O3)cc1`: the relative growth was inactive: 0.963.

With `C[C@@H]1CN([C@@H](C)CO)C(=O)c2cccc(NC(=O)C3CCCCC3)c2O[C@@H]1CN(C)Cc1ccc(Cl)c(Cl)c1`, the relative growth is inactive: 0.988. As for `C[C@@H]1CN([C@H](C)CO)C(=O)Cc2cc(NS(C)(=O)=O)ccc2O[C@H]1CN(C)C(=O)Nc1ccccc1`, the relative growth was inactive: 1. On to `CCOC(=O)C(C#N)C1=NCCC1` (stereo not drawn), for which the relative growth is inactive: 1.02. Regarding `COc1cccc(NC(=O)N(C)C[C@@H]2Oc3ncc(C#Cc4cccnc4)cc3C(=O)N([C@H](C)CO)C[C@@H]2C)c1`, the relative growth is inactive: 0.995. The result for `Cc1ccc(S(=O)(=O)N(C)C[C@@H]2Oc3ccc(NC(=O)c4ccncc4)cc3C(=O)N([C@H](C)CO)C[C@H]2C)cc1` reads inactive: 0.992. `Cc1cccc(NC(=O)C[C@H]2NCCNC2=O)c1`: the relative growth is inactive: 0.904. As for `CC(C)NC(=O)Nc1ccc2c(c1)C(=O)N([C@@H](C)CO)C[C@H](C)[C@H](CN(C)S(=O)(=O)c1cn(C)cn1)OCCCC[C@H](C)O2`, the relative growth is inactive: 0.986. With `Cc1ccc(S(=O)(=O)N(C)C[C@@H]2Oc3ccc(NS(=O)(=O)c4c(C)noc4C)cc3C(=O)N([C@@H](C)CO)C[C@H]2C)cc1`, the relative growth is inactive: 1.02. `Cl.O=C(COc1ccc(Cl)cc1)N1CCN(Cc2ccc3c(c2)OCO3)CC1`: the relative growth was inactive: 1.02. The result for `C[C@H]1CN([C@@H](C)CO)C(=O)c2cc(NC(=O)Nc3ccc4c(c3)OCO4)ccc2O[C@@H]1CN(C)C(=O)Nc1cccc2ccccc12` reads inactive: 0.93; that for `C[C@@H]1CN([C@@H](C)CO)C(=O)c2cc(NC(=O)c3ccccc3)ccc2O[C@@H](C)CCCCO[C@H]1CN(C)C(=O)NC1CCCCC1`, inactive: 1.02; that for `CN(C)CC#Cc1ccc([C@@H]2[C@H](CO)N3CCCCN(C(=O)CN(C)C)C[C@@H]23)cc1`, inactive: 0.987. As to `COc1ccc(NC(=O)N(C)C[C@H]2Oc3c(NC(=O)c4ccc(-c5nccs5)cc4)cccc3C(=O)N([C@H](C)CO)C[C@@H]2C)cc1`, the relative growth is inactive: 0.998.

For the compound `COc1ccc(S(=O)(=O)Nc2ccc3c(c2)C(=O)N([C@@H](C)CO)C[C@H](C)[C@H](CN(C)C(=O)Nc2ccccc2)OCCCC[C@H](C)O3)cc1`, the relative growth was inactive: 0.993.

For the compound `Cc1noc(C)c1NC(=O)N(C)C[C@H]1Oc2ncc(C#CCC(C)C)cc2C(=O)N([C@H](C)CO)C[C@H]1C`, the relative growth was inactive: 0.977. The result for `C[C@@H]1CN([C@H](C)CO)C(=O)c2cccc(NC(=O)Nc3ccc(C(F)(F)F)cc3)c2O[C@H]1CN(C)Cc1ccc(C(F)(F)F)cc1` reads inactive: 0.849; that for `C[C@H]1CN([C@@H](C)CO)C(=O)Cc2cc(NC(=O)Nc3cccc4ccccc34)ccc2O[C@@H]1CN(C)CC1CCCCC1`, inactive: 0.979; that for `C[C@@H]1CN([C@@H](C)CO)C(=O)CCCn2cc(nn2)CO[C@@H]1CN(C)C(=O)Nc1cccc2ccccc12`, inactive: 1. With `Cc1scc2c1N(C(=O)CN1CCN(C)CC1)c1ccccc1NC2=O.Cl` the figure was active: 0.044; with `COc1cccc(NC(=O)N(C)C[C@H]2OCc3ccccc3-c3c(n(C)c4ccccc34)C(=O)N([C@@H](C)CO)C[C@H]2C)c1`, inactive: 0.995. Take `COc1ccc(NC(=O)N(C)C[C@@H]2OCCCC[C@@H](C)Oc3ccc(NC(=O)c4ccccc4)cc3C(=O)N([C@@H](C)CO)C[C@H]2C)cc1`: the relative growth was inactive: 1.01. With `C[C@H]1CN([C@@H](C)CO)C(=O)c2cccc(NC(=O)Nc3ccccc3)c2O[C@@H]1CN(C)Cc1ccc(-c2ccccc2)cc1`, the relative growth was inactive: 0.971. On to `Cc1noc(C)c1S(=O)(=O)Nc1cccc2c1O[C@@H](CN(C)S(=O)(=O)c1cn(C)cn1)[C@@H](C)CN([C@@H](C)CO)C2=O`, for which the relative growth was inactive: 1. As to `COc1ccc(CN(C)C[C@@H]2Oc3c(NS(C)(=O)=O)cccc3C(=O)N([C@@H](C)CO)C[C@H]2C)cc1`, the relative growth is inactive: 1. The result for `O=C(C[C@H]1CC[C@@H]2[C@H](COC[C@H](O)CN2S(=O)(=O)c2ccccc2Cl)O1)NCc1ccccc1Cl` reads inactive: 0.989; that for `COc1cc(C(=O)OCCCN2CCN(CCCOC(=O)c3cc(OC)c(OC)c(OC)c3)CC2)cc(OC)c1OC`, inactive: 1.01; that for `C[C@H]1CN([C@@H](C)CO)C(=O)c2cc(NS(=O)(=O)c3ccc(Cl)cc3)ccc2O[C@@H]1CN(C)Cc1ccc(C(F)(F)F)cc1`, inactive: 1.05. Regarding `CO[C@H]1CN(C)C(=O)c2cc(NC(=O)Nc3ccc(Cl)cc3)ccc2OC[C@H](C)N(C(=O)Nc2c(C)noc2C)C[C@@H]1C`, the relative growth is inactive: 0.996. `COC(=O)c1cnn2c(=O)c3c([nH]c12)CCC3`: the relative growth is inactive: 0.951. With `CCN(CC)C(=O)N1CCN(C)CC1`, the relative growth is inactive: 1.01. As for `C[C@H](CO)N1C[C@H](C)[C@H](CN(C)Cc2ccc(C(=O)O)cc2)OCCCC[C@H](C)Oc2ccc(NC(=O)c3ccccc3)cc2C1=O`, the relative growth is inactive: 1.01.

Turning to `CC(C)CC(=O)N1CCN(S(C)(=O)=O)CC1`, the relative growth was inactive: 1. For the compound `O=C(O)c1cc(O)c(O)c(O)c1`, the relative growth was inactive: 1.12. Take `COc1ccc(CN(C)C[C@@H]2OCCCC[C@H](C)Oc3ccc(NC(=O)NC(C)C)cc3C(=O)N([C@@H](C)CO)C[C@H]2C)cc1`: the relative growth is inactive: 0.988. As to `COc1cccc(CNC(=O)c2cc3c(c(-c4cccc(-c5ccncc5)c4)n2)[C@H](CCO)N([S@@](=O)C(C)(C)C)C3)c1`, the relative growth is inactive: 0.956. As to `Cc1noc(C)c1NC(=O)N[C@H]1CC[C@H](CC(=O)N2CCN(C)CC2)O[C@H]1CO`, the relative growth was inactive: 1. Turning to `NS(=O)(=O)OCCCCCCCOS(N)(=O)=O`, the relative growth is inactive: 1.01.

As to `C[C@@H]1CN([C@H](C)CO)C(=O)c2cc(NC(=O)Nc3ccc4c(c3)OCO4)ccc2O[C@@H](C)CCCCO[C@@H]1CN(C)Cc1ccc2c(c1)OCO2`, the relative growth was inactive: 1.02.

With `CC(C)=CCCC(C)=CCCC(C)=CCO` ["trans,trans-FARNESOL"], the relative growth was inactive: 0.916. On to `C[C@@H]1CCCCO[C@@H](CN(C)C(=O)C2CCCCC2)[C@@H](C)CN([C@H](C)CO)C(=O)c2cc(NC(=O)CCC(F)(F)F)ccc2O1`, for which the relative growth was inactive: 0.92.

For the compound `CCS(=O)(=O)Nc1ccc2c(c1)C(=O)N(C)C[C@H](OC)[C@@H](C)CN(CCC(F)(F)F)[C@@H](C)CO2`, the relative growth is inactive: 0.961. Regarding `C[C@@H]1CCCCO[C@H](CN(C)C(=O)C2CCCCC2)[C@@H](C)CN([C@H](C)CO)C(=O)c2cc(NC(=O)CCC(F)(F)F)ccc2O1`, the relative growth is inactive: 1.02. The result for `COc1ccc(CN(C)C[C@H]2OCCCC[C@@H](C)Oc3ccc(NC(=O)Nc4ccc5c(c4)OCO5)cc3C(=O)N([C@@H](C)CO)C[C@H]2C)cc1` reads inactive: 0.994; that for `CC(C)NC(=O)N(C)C[C@H]1OCCCC[C@@H](C)Oc2ccc(NC(=O)Nc3ccccc3)cc2C(=O)N([C@@H](C)CO)C[C@H]1C`, inactive: 0.996.

As for `C[C@@H]1CN([C@H](C)CO)C(=O)c2cc(NC(=O)Nc3cccc4ccccc34)ccc2O[C@@H](C)CCCCO[C@H]1CN(C)Cc1ccncc1`, the relative growth was inactive: 0.976. Regarding `C[C@H]1CN([C@@H](C)CO)C(=O)c2cccc(NS(C)(=O)=O)c2O[C@@H]1CN(C)C(=O)Nc1ccc2c(c1)OCO2`, the relative growth was inactive: 1.01. Consider `C[C@H]1CCCCO[C@@H](CN(C)C(=O)Nc2ccc(C(F)(F)F)cc2)[C@@H](C)CN([C@@H](C)CO)C(=O)c2cc(NS(=O)(=O)c3cn(C)cn3)ccc2O1`, for which the relative growth is inactive: 1.01. For the compound `Cc1noc(C)c1S(=O)(=O)Nc1ccc2c(c1)CC(=O)N([C@@H](C)CO)C[C@H](C)[C@H](CN(C)C(=O)Nc1ccccc1)O2`, the relative growth was inactive: 0.999. The result for `Cc1noc(C)c1S(=O)(=O)Nc1ccc2c(c1)C(=O)N([C@H](C)CO)C[C@@H](C)[C@@H](CN(C)S(=O)(=O)c1cn(C)cn1)OCCCC[C@@H](C)O2` reads inactive: 1; that for `C[C@@H]1CN([C@@H](C)CO)C(=O)Cc2cc(NC(=O)CCCN(C)C)ccc2O[C@H]1CN(C)S(C)(=O)=O`, inactive: 1. With `C[C@H]1CN([C@@H](C)CO)C(=O)c2cc(NC(=O)Cn3cnnn3)ccc2O[C@@H]1CN(C)Cc1ccc(Cl)c(Cl)c1`, the relative growth is inactive: 0.992.
